The target of assay [1] is T1, GFP-tagged PMFBP1 (UniProt Q9WVQ0).
T1 sequence: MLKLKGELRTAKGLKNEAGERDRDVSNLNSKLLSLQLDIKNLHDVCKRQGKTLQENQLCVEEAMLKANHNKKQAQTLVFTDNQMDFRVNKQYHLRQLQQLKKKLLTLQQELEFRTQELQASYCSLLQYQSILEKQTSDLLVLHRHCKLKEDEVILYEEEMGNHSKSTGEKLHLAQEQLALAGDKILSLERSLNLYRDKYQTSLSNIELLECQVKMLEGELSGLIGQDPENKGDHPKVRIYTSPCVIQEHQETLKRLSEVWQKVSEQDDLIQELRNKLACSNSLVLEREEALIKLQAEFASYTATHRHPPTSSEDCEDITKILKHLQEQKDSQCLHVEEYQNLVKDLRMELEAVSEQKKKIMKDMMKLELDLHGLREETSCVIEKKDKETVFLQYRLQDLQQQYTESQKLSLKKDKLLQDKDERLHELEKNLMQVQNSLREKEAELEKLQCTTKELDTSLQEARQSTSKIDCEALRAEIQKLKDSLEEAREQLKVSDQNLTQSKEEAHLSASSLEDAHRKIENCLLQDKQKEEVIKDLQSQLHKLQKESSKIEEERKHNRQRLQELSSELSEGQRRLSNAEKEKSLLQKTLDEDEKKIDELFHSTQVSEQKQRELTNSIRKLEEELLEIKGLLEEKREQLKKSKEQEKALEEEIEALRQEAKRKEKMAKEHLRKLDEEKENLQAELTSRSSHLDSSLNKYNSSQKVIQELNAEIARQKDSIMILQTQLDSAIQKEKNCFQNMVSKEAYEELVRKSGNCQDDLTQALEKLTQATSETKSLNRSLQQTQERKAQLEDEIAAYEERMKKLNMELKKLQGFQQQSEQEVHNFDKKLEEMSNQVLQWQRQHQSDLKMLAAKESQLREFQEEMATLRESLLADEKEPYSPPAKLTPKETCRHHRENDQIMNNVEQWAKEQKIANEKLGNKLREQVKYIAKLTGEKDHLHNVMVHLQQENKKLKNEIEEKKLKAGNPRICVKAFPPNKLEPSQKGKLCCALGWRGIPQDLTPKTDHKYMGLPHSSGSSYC
The assay can be described thus: co-IP; HEK293T cells co-transfected with two tagged plasmids, collected after 24 h; lysed in ELB buffer (50 mM HEPES, 250 mM NaCl, 0.1% NP-40); IP with anti-GFP, anti-FLAG or anti-MYC antibody and Dynabeads-protein-G at 4 °C; immunoblot for the tags. (In general: Immunoblotting shows a protein as a band on a membrane.)

Assay [2] addresses T2, GFP-SUN5 SUN domain (193–373aa) (UniProt Q9DA32).
T2 sequence: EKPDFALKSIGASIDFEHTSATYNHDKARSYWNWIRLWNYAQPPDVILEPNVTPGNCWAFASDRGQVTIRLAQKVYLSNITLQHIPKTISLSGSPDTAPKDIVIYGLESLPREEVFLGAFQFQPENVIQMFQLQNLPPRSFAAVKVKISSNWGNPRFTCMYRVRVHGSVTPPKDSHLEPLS
The description is as above.

No constants are given. Whether binding was seen depends on the method and setting. Binding seen in cells or lysates may run through a third protein. Some entries that bind do so weakly or less than the wild type. Where a sequence is shown, tags or fusion partners need not be part of it.

B1: MYC-tagged CENTLEIN (protein, UniProt A2AM05 1-1397)
chain: MAARSPSSSPPPPPVRRSSRRSLRVGRGAEVHAVRSEASGLAGAAREVVADKSDLLWRGEEGSGGRRGSGRAGAAVAPVASAPAGSWWPEGLSSEEAKATRSQLLEEELSSLKEELALCQADKEFVWSLWRRLQATNPDLTQTVSLVVEREKQKSEAKDRKVLEILQVKDSKIQELEQTESVLKQELHDLVKLKTLVDEENAFLRKELCDLQKKFKDKSQEVKDAKECVQSKEEQNRLVIKNLEEENERLRTRCTDLLNDLEKLRNQEAHWRKEKHSVDTRVKVLEENLIEAKKEIESAQTKYNVVSQQLNNKQAELLQKDMDITLIRKELQELQNVYKQNSAHTAQQADLIQQLQALNMDTQKVLRNQEDVHTAESMSYQKLYNELHMCFETTKSNEVMLRQSVVNLQGQLFQKEQENVKLKEKLEESQGTAPSLSPHDSDSSHSGKAPLSTLETLMISQKSEIEYLQKKLKVANEKLMANRSCDQDFSEKGTEGKHKEPPVKRSRSLSPKSSFMGSEELRKLKKAERKIENLEKTLQLKSQENDELRDAHEKRKERLQMLHTNYRAVKEQLKQWEEDSGMAESRQMKRAEPHQLRQEDSDAVWNELAYFKRENQELMVQKMTLQDELDELKMHMSIDKTTIQELNRCMAEKREEQLFRQHEDAEVKKSTPEKNEKAISEETLQKVIELENRLKSFEKNSRKLKEESKRLKKENDFLKSHLKHYQEDSEAREKELEQLLRVSKDVEHDKSELQTKITALETEVTTLRRQVTEAKALRGKDEEVVCPEERAHRPTDKAKSEMATTDVRARRCDCKTATTKVKFKAAKRKCSVGRHHTVLNHSIKVMSHVENLSKDGWEDVSEGSSDSETQTFQNLGTIIVETSQNISPIEDGRNQKEIDQTEGSCAQQRAMQTYSCEDIKAPQSISHNKNTKKMTFQKKSGSLQKSLHSALPARVNREKCKNLPAQKSSSSTISLRERIVSLQQQNSLLQNARRAAEASAKEYKEANEKLLHQQQVSDHRFQTSRQTIKKLTLDLAELRKEKEDLLKKVESSSDIMSLAEEVSRIMAPQIKVTTLGPSRSMDLEMKQLQCKLKNATNELTKQSSNVKSLRMELLAKDDHIKEMHERTSRMERDITMKRHLIEDLKFRQKVNSESNESFNEMLETLEKKVKSLTEECSNKKVSVDSLKQRLNVAVKEKSQYEQMYQKTKEELEKKDLKMSVLISKLNDTETAMAQIETAASEQLQGLALQSEQVLEGAQKKLLSANEKIEEFTVFVKALVNELQSDVHGTRHQIRELKKMQKSRHACKTSTHKAQTLAASILNISRSDLEEILDTEDELEIEKTKIDIENDKEWMLYIQKLLEGQLPFASYLLEAVLEKIKENKKLTEGYFTVMKDTK
As to B1, the binding result in assay [1] and in assay [2] was “binds” in each case.

The values above are taken from paper PMC8363609.
